From patent publication US12728139B2, “Methods of preparing purified atomic quantum clusters” (NANOGAP SUB-NM-POWDER, S.A., priority 2018, dated 2026) come the findings set out here.

The experiment has as its system A549 orthotopic lung cancer. The experiment can be described thus: Orthotopic lung cancer model. To be noted: CDDP alone, 37 days, compared to control group.

Each structure is given as a SMILES string.

Turning to `[NH2][Pt]([NH2])([Cl])[Cl]` [CDDP, Cisplatin], the “Lung and mediastinal node luciferase levels ex vivo” value is “significantly reduced lung and mediastinal node luciferase levels”.
